Laboratory results taken from PubChem BioAssay AID686970 (National Center for Advancing Translational Sciences (NCATS), 2013).
Out of some 360,000 compounds screened, about 6,000 (1.7%) were called active. This list was built around the results that the source calls inconclusive (neither active nor inactive); the mix of calls is not that of the screen. Calls come from the whole dose curve; as a rule, active = well fitted cell-killing curve with a large enough effect; inconclusive = small, poorly fitted or top-dose-only effect, or effect the other way; inactive = flat fitted curve, though single readings scatter. Potencies of inconclusive entries are left out as doubtful fits.
Potency is the fitted concentration of half-maximal effect; tags give direction and shape of the fitted curve.

Assay: qHTS for induction of synthetic lethality in tumor cells producing 2HG: qHTS for the HT-1080-NT fibrosarcoma cell line;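 note: NT is the 2HG producing partner of a matched IDH1 knockdown line; nearly all actives have a fitted effect of over 55% in size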;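 for activity, negative = less viability: 0% = DMSO-treated cells and -100% = media-only wells without cells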
Details: HT-1080-NT fibrosarcoma viability, CellTiter-Glo ATP luminescence, 48 h; activity, negative = less viability: at 46.1 µM (top of the series) unless noted
Method in brief: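 Luminescent CellTiter-Glo readout after 48 hours of compound exposure at 37 degrees C defined viability of HT-1080-NT cells. Activity was normalized to DMSO wells and cell-free media wells; concentration-response curves were fitted and assigned curve classes.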
In the case of `O=C(CCN1C(=O)/C(=C/C=C/c2ccccc2)SC1=S)Nc1cccnc1`, the Potency is reported as inconclusive [cytotoxic, single point].
With `Cc1ccsc1C(=O)Nc1nnc(-c2ccco2)o1` the Potency was “inactive”.
With `Cc1cn(CCC(=O)Nc2ccccc2N2CCOCC2)c2ccccc12` the Potency was “inactive”.
With `CCOc1cccc(NCc2cc3c(C(C)(C)C)nn(-c4ccccc4)c3[nH]c2=O)c1` the Potency was inconclusive [cytotoxic, single point].
In the case of `CC[C@@H]1CC=C[C@H]2[C@H]1C(=O)N(Cc1ccccc1)[C@H]2c1ccoc1`, the Potency is reported as inconclusive [cytotoxic, single point].
For `COc1cc2nc(Nc3cccc(F)c3)nc(N)c2cc1OC`, the Potency was inconclusive [cytotoxic, single point].
With `COc1ccc(/C=N/NC(=O)c2cccc(Br)c2)cc1Cn1cc(Cl)cn1` the Potency was inconclusive [cytotoxic, partial curve].
For `CC1=C(C#N)C(c2ccccc2)C2=C(N1)c1ccccc1C2=O` (stereo not given), the Potency was inconclusive [cytotoxic, partial curve].
For `CC(=O)C1=C(O)C(=O)N(c2cccc(Br)c2)C1c1ccc(Br)cc1` (stereo not given), the Potency was inconclusive [cytotoxic, single point].
In the case of `NC(=O)CCCn1c(C(=O)c2ccc(Cl)cc2)c2ccc(C(F)(F)F)cc2[n+]1[O-]`, the Potency is reported as inconclusive [rising, single point].
With `O=C(Nc1ccccc1NC(=O)c1c(F)c(F)c(F)c(F)c1F)c1c(F)c(F)c(F)c(F)c1F` the Potency was inconclusive [cytotoxic, single point].
For `CCOC(=O)Cn1ccc(NC(=O)COc2ccc(F)cc2)n1`, the Potency was “inactive”.
For `CC(C)(C)c1cc(S(=O)(=O)CCc2ccncc2)cc(C(C)(C)C)c1F`, the Potency was “inactive”.
With `Cc1ccc(/C=C/C(=O)NCCc2cccc(Cl)c2)o1` the Potency was inconclusive [cytotoxic, single point].
For `CCN(CC)S(=O)(=O)c1ccc(N2CCCC2)c(NC(=O)c2ccccc2OC)c1`, the Potency was “inactive”.
In the case of `O=S(=O)([N-]c1nc2ccccc2nc1-n1cc[n+](Cc2ccccc2)c1)c1ccc(Cl)cc1`, the Potency is reported as “inactive”.
In the case of `CCCCCCSc1ccc([C@@H]2[C@@H]3C(=O)N(C)C(=O)[C@@H]3[C@]3(C(=O)OC)CCCCN23)cc1OC`, the Potency is reported as active: 29.1 µM.
With `O=C(CCN1C(=O)c2ccccc2C1=O)N1CCN(c2ccccn2)CC1` the Potency was “inactive”.
With `O=C1OC(Oc2ccc(Br)cc2)(c2ccccc2)c2ccccc21` (stereo not given) the Potency was inconclusive [cytotoxic, partial curve].
With `CCCCNC(=O)c1[nH]c(=O)cnc1-c1ccccc1` the Potency was inconclusive [rising, single point].
In the case of `NC(=O)N1c2ccccc2C=Cc2ccccc21`, the Potency is reported as inconclusive [cytotoxic, full curve].
With `Cc1ccc(Cl)c(NC(=S)N(CCCN2CCOCC2)Cc2ccco2)c1` the Potency was inconclusive [cytotoxic, single point].
In the case of `CCc1ccccc1N(C)S(=O)(=O)c1cc(-c2cc(C)no2)ccc1OC`, the Potency is reported as inconclusive [cytotoxic, single point].
For `COc1ccc(NC(=O)c2oc3ccccc3c2NC(=O)c2ccco2)c(OC)c1`, the Potency was inconclusive [rising, single point].
In the case of `Cc1cc(=O)[nH]c(N/N=C/c2ccc(-c3ccc(F)cc3)o2)n1`, the Potency is reported as inconclusive [cytotoxic, partial curve].
In the case of `NC(Cc1ccc(C(F)(F)F)cc1)c1csc(NC(=O)Nc2ccccc2Cc2ccccc2)n1` (stereo not given), the Potency is reported as active: 8.2 µM.
With `Cc1ccc2nc(-c3ccc(NS(C)(=O)=O)cc3)cc(-c3ccccc3)c2c1` the Potency was inconclusive [cytotoxic, single point].
In the case of `CCOC(CNc1ncnc2c1cnn2C)OCC`, the Potency is reported as inconclusive [rising, single point].
In the case of `COc1ccc(N2CCN(C(=O)CSc3ncccc3-c3nc4ccccc4[nH]3)CC2)cc1`, the Potency is reported as “inactive”.
In the case of `COC(=O)C1=CN(c2ccc(F)cc2)C(N)=C(C#N)C1c1ccc(-c2ccccc2)cc1` (stereo not given), the Potency is reported as active: 10.3 µM.
In the case of `CCN(CC)CCNCc1cc(Cl)c(OCC(=O)Nc2ccccc2)c(OC)c1`, the Potency is reported as inconclusive [cytotoxic, single point].
With `O=C(Cn1cnc2sc(-c3ccccc3)cc2c1=O)NCc1ccco1` the Potency was inconclusive [cytotoxic, single point].
With `CCOc1ccc(N2CC(C(=O)Nc3cccc(S(=O)(=O)N4CCOCC4)c3)CC2=O)cc1` (stereo not given) the Potency was “inactive”.
With `Cc1ccc2c(=O)n3c(nc2c1)C(Cc1ccccc1)NC(=O)c1cc2ccccc2cc1-3` (stereo not given) the Potency was active: 6.51 µM.
With `Cc1c(C(=O)N/N=C/c2ccccc2)[nH]c2ccc(Cl)cc12` the Potency was active: 18.4 µM.
With `O=C(c1ccc2ccccc2c1)N1CCN(S(=O)(=O)/C=C/c2ccccc2)CC1` the Potency was “inactive”.
In the case of `CCc1cccc(NC(=O)C2CCN(S(=O)(=O)c3ccc4c(c3)CC(C)N4C(C)=O)CC2)c1` (stereo not given), the Potency is reported as “inactive”.
For `COc1ccc(NC(=O)NC2CCCc3ccccc32)cc1` (stereo not given), the Potency was inconclusive [cytotoxic, single point].
For `CC(=O)N/C(=C\c1ccccc1)C(=O)OCC(=O)N(CC(C)C)c1c(N)n(Cc2ccccc2)c(=O)[nH]c1=O`, the Potency was “inactive”.
In the case of `COc1ccc(-n2c(C)cc(C(=O)CN3C(=O)C(=O)N(Cc4ccccc4)C3=O)c2C)cc1`, the Potency is reported as inconclusive [cytotoxic, partial curve].
For `CC(C)(C)c1ccc(N2C(=O)CC(c3ccccc3)C2=O)cc1` (stereo not given), the activity, negative = less viability was inconclusive: 32.8%.
In the case of `Cc1ccc(NCCN(C)C)c2c(=O)c3cc(O)ccc3sc12`, the Potency is reported as inconclusive [cytotoxic, single point].
With `Cc1cc(NS(=O)(=O)c2ccc(NC(=O)COc3ccc(C#N)cc3)cc2)nc(C)n1` the Potency was “inactive”.
For `CCCCCCCCN1C(=O)[C@H](CC(=O)NCc2cccc3ccccc23)C[C@@]2(C(=O)OCC)CCCC=C12`, the Potency was inconclusive [cytotoxic, single point].
For `CS(=O)(=O)c1ccc(NC(=O)CN2C(=O)C3CCCCC3C2=O)cc1` (stereo not given), the Potency was inconclusive [rising, single point].
For `Cc1cc(C)cc(Oc2nc(C(F)(F)F)nc3ccccc23)c1`, the Potency was inconclusive [cytotoxic, single point].
With `CCOC(=O)c1c(C)nc2c(c1C)c(=O)oc1ccccc12` the Potency was inconclusive [rising, full curve, poor fit].
With `NC(c1ccccc1)c1csc(Nc2ccc(C(=O)c3ccccc3)cc2)n1` (stereo not given) the Potency was inconclusive [cytotoxic, partial curve].
For `COc1cccc(OC)c1OCCCCN1CCCC1`, the Potency was “inactive”.
For `CC(C)(C)c1nc(SCC(=O)Nc2nc3c(s2)CCCC3)c2ccccc2n1`, the Potency was inconclusive [cytotoxic, full curve].
For `COc1cccc(-n2cc(C(=O)O)c3ccccc3c2=O)c1`, the Potency was active: 14.1 µM.
For `Cc1cccc(N2CCN(C(=O)c3ccc(Cl)c(S(=O)(=O)NCc4ccco4)c3)CC2)c1C`, the Potency was inconclusive [cytotoxic, single point].
In the case of `COc1cc(/C=C/c2ccc3cccc(O)c3n2)cc(OC)c1OC`, the Potency is reported as active: 8.2 µM.
For `COc1cccc(C(=O)Nc2cccc(-c3nnc(-c4ccco4)o3)c2)c1`, the Potency was inconclusive [cytotoxic, single point].
With `CCCNCC1C(Oc2ccc(Cl)cc2Cl)C(=O)N1c1cccc(C)c1C` (stereo not given) the Potency was inconclusive [cytotoxic, single point].
For `COc1cc(OC)c(OC)cc1/C=C/c1ccnc2ccccc12`, the Potency was inconclusive [cytotoxic, single point].
With `COc1ccc(-c2cc(NC(C)=O)c3ncc(-c4cc(OC)c(OC)c(OC)c4)n3c2)cn1` the Potency was inconclusive [cytotoxic, full curve].
For `CC(=O)Cn1ncc(Br)c(Br)c1=O`, the Potency was active: 10.3 µM.
In the case of `NC(=O)c1c(NC(=O)C2COc3ccccc3O2)sc2c1CCN(Cc1ccccc1)C2` (stereo not given), the Potency is reported as inconclusive [cytotoxic, full curve, poor fit].
For `O=C(COc1ccccc1Cl)NC(=S)N1CCc2ccccc21`, the Potency was active: 11.2 µM.
With `CCCCNc1c(-c2cccc(-c3ccc(OC)cc3)c2)nc2ccc(C)cn12` the Potency was inconclusive [cytotoxic, single point].
With `O=C(Nc1cccc(-c2cnc3ccccc3n2)c1)C1CC(=O)N(c2ccccc2)C1` (stereo not given) the Potency was “inactive”.
In the case of `OCCN1CCN(c2cc(-c3ccc(CO)cc3)nc3ccnn23)CC1`, the Potency is reported as inconclusive [rising, single point].
For `CC(C)C(OC(=O)c1ccco1)C(=O)NCc1ccco1` (stereo not given), the Potency was “inactive”.
In the case of `CCCn1c(C(C)Nc2nc(-c3ccc(Cl)c([N+](=O)[O-])c3)cs2)nc2ccccc21` (stereo not given), the activity, negative = less viability is reported as inconclusive: -32.1%.
In the case of `Cc1ccc2c(C)nc(Nc3nc(CSc4nnnn4-c4ccccc4)cc(=O)[nH]3)nc2c1`, the Potency is reported as inconclusive [cytotoxic, single point].
For `S=C(Nc1ccccn1)c1ccccn1`, the Potency was inconclusive [cytotoxic, full curve].
In the case of `CCOc1ccc(C(=O)/C=C/Nc2ccc(S(=O)(=O)N=C(N)N)cc2)cc1`, the Potency is reported as inconclusive [cytotoxic, single point].
With `CCOC(=O)C1(Cc2cccc(OC)c2)CCN(C/C=C/c2ccc(OC)cc2)CC1` the Potency was active: 13 µM.
With `Cc1cc(N2C3CCC2CC(O)(c2ccc(F)cc2)C3)nc(-c2ccccc2)n1` (stereo not given) the Potency was active: 14.1 µM.
